# Data: PubChem BioAssay AID1347165 (National Center for Advancing Translational Sciences (NCATS), 2019)
# The whole screen tested about 220,000 compounds, of which about 5,700 (2.6%) were called active. This list was built around the results that the source calls inconclusive (neither active nor inactive); the mix of calls is not that of the screen. The call rests on the fitted dose curve; in most records, active means well fitted inhibition curve with a large enough effect; inconclusive means small, poorly fitted or top-dose-only effect; inactive means no such curve, though single readings can be large or run the other way. Potencies beside an inconclusive call are fits to weak or partial responses and may not hold up.
# Target: Lysine-specific demethylase 5B (Homo sapiens) (UniProt Q9UGL1)
# UniProt Q9UGL1, sequence (Q9UGL1 whole entry, looked up): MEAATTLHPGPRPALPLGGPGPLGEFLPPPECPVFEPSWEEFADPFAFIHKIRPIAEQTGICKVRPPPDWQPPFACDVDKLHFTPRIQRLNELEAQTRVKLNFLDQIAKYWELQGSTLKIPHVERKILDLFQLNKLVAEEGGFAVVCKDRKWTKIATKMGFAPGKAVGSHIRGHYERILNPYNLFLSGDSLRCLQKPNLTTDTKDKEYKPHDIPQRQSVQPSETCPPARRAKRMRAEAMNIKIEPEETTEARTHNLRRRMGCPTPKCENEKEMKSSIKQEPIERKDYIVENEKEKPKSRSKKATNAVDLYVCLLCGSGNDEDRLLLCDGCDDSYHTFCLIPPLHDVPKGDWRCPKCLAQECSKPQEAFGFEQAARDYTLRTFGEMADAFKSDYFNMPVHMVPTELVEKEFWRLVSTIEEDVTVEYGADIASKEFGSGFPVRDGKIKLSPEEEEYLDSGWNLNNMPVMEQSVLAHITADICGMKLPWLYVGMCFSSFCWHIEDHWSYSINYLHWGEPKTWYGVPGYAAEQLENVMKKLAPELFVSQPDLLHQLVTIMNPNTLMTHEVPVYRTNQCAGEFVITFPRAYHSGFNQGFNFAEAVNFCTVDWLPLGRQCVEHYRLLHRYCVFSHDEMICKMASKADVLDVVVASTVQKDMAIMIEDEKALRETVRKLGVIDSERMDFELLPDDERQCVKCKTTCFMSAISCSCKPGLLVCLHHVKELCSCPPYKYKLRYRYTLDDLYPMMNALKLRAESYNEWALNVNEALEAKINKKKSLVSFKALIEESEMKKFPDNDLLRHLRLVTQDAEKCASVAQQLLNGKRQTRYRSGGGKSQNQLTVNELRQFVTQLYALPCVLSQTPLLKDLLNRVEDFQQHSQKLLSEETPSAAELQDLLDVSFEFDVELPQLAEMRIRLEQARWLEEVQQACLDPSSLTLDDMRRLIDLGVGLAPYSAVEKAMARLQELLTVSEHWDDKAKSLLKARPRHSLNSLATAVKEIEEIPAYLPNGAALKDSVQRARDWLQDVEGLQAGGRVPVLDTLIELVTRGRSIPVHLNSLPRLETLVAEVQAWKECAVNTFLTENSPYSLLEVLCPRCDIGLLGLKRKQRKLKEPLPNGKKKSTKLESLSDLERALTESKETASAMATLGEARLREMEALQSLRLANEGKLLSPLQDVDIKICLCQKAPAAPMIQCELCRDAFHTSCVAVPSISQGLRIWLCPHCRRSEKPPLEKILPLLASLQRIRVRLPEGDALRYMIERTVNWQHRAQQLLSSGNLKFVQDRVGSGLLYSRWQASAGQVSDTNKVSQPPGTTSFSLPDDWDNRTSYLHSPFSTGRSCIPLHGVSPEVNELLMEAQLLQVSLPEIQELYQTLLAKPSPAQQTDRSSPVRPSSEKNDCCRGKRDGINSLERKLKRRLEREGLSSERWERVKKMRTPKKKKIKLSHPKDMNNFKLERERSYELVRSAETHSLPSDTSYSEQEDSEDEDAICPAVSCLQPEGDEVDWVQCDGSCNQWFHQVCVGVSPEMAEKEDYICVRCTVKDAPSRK
# Test: Primary screen for KDM5B Histone Demethylases FDH-coupled qHTS; further: nearly all actives have a fitted effect of over 70% in size
# Conditions: FDH-coupled NADH fluorescence (FDH is formaldehyde dehydrogenase); series mostly up to 57.7 µM
# Outline: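 Here, H3K4me3 peptide (12.5 µM in substrate mix) is demethylated by KDM5BΔAP, 200 nM final, after 10 min compound exposure. Formaldehyde product is coupled through FDH (0.25 U/mL in mix) to NADH fluorescence; 30-min ΔRFU feeds dose-response curves.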
# Potency means the concentration at half of the fitted maximal effect; tags describe the fitted curve by direction and shape.
row,SMILES,Potency
1,CCC1(CO)CCCN(Cc2ccc3c4c(cccc24)C(=O)OC3)C1 (centres undefined),active: 11.2 µM
2,Cc1ccccc1C1CC(=O)N2CN(Cc3ccccc3)CSC2=C1C#N (centres undefined),"inconclusive: 12.6 µM [inhibitor, partial curve, poor fit]"
3,Cc1ccc(-c2nnc(Nc3ccc(O)cc3)c3ccccc23)cc1S(=O)(=O)N1CCCCC1,"inconclusive: 17.8 µM [inhibitor, partial curve, poor fit]"
4,O=c1c2cccnc2n(Cc2cccc(F)c2)c(=O)n1Cc1ccccc1Cl,"inconclusive: 44.7 µM [inhibitor, single point]"
5,O=C(c1ccc2c(c1)OCO2)N1CCn2c(nnc2-c2ccc(Cl)cc2)C1,"inconclusive: 5.01 µM [inhibitor, full curve, poor fit]"
6,N#CCc1ccc(OCc2ccc(C#N)cc2)cc1,inactive
7,COc1cccc(C(=O)Nc2cccc(C(=O)OCc3cc(=O)n4c5c(sc4n3)CCCC5)c2)c1,"inconclusive: 14.1 µM [inhibitor, partial curve, poor fit]"
8,CC(C)(C)c1ccc(OCCOc2ccccc2/C=C(/C#N)C(N)=O)cc1,"inconclusive: 28.2 µM [inhibitor, single point]"
9,COc1ccc(-c2nc3c(c(-c4ccccc4)n2)CN(C(=O)c2ccccc2)CC3)cc1,"inconclusive: 20 µM [inhibitor, single point]"
10,Cc1ccc2nc(C(=O)N3CCN(c4ccccc4)CC3)cn2c1,inactive
11,CN(C)c1ccc(C(=O)N2CCCC(n3cc(-c4nc(-c5ccccc5)no4)nn3)C2)cc1 (centres undefined),"inconclusive: 28.2 µM [inhibitor, single point]"
12,CC(=O)N1CCN(c2csc3ccc(Br)cc3c2=O)CC1,"inconclusive: 22.4 µM [inhibitor, partial curve, poor fit]"
13,CN(Cc1ccccc1)c1ccccc1NCC(=O)NC(N)=O,inactive
14,CC(CCc1ccccc1)NC(=O)CSc1nc2cc(Cl)ccc2s1 (centres undefined),inactive
15,COC(=O)c1ccccc1NC(=O)N1CCC(n2c(C)nc3cccnc32)CC1,"inconclusive: 1.26 µM [inhibitor, partial curve, poor fit]"
16,COc1ccc(-c2[nH]ncc2CN2CCc3nc(N4CCN(C)CC4)[nH]c(=O)c3CC2)cc1,inactive
17,COc1ccc(-n2[nH]c(CSc3nnnn3-c3ccccc3)cc2=O)cc1,inactive
18,Cc1ccc(NC(=O)N2CCN(C)c3ncccc32)cc1C,"inconclusive: 17.8 µM [inhibitor, partial curve, poor fit]"
19,COc1cccc(C(O)c2nc(C(=O)Nc3ccc4c(c3)CC(=O)N4)c(C)o2)c1 (centres undefined),"inconclusive: 56.2 µM [inhibitor, single point]"
